Reference: article PMC4336329 (PLoS ONE, 2015)
About 2,200 (0.71%) of roughly 310,000 compounds showed an effect of 50% or more. Effects have a minus sign here. The list shows a part of the results.

Molecular target: human ether-à-go-go-related gene (hERG) potassium channel (human, UniProt Q12809)
Test: primary screen, population patch clamp on CHO cells stably expressing hERG

Sequence of human ether-à-go-go-related gene (hERG) potassium channel (Q12809 whole entry, looked up): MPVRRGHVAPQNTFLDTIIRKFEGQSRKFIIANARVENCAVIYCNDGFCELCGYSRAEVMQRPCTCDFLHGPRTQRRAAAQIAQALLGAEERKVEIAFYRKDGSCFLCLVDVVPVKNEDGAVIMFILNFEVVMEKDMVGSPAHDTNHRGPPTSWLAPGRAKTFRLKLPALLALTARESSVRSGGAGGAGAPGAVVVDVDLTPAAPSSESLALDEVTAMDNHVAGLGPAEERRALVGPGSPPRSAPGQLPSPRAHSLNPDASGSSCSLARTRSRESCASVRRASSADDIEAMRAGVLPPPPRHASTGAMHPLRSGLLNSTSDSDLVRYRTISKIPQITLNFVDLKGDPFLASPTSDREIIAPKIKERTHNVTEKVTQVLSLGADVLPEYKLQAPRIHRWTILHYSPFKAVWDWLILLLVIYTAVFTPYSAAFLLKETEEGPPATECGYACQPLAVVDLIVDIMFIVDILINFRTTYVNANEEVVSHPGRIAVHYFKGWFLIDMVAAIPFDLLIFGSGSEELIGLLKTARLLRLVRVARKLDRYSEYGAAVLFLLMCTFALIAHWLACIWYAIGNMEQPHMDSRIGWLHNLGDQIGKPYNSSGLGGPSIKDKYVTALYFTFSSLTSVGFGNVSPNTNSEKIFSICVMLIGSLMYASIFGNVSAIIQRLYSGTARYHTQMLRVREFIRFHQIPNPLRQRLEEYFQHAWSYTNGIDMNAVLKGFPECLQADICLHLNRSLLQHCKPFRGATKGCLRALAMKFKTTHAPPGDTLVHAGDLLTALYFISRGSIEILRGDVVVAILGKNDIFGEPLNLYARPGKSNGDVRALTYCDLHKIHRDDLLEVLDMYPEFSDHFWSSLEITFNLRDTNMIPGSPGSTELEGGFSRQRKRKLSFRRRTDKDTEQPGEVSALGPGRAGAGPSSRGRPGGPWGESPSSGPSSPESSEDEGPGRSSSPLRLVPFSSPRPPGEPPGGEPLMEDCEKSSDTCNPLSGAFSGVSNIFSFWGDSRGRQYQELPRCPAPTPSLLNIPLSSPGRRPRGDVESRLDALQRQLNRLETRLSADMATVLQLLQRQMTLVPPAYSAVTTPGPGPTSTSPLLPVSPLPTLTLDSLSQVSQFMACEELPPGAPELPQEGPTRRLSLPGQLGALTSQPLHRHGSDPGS

Row | SMILES | hERG current change (%, negative = inhibition) at 1uM [%]
1 | CCCCCCCCC(=O)NCc1ccc(O)c(OC)c1 | 3.62
2 | Cc1ccc2c(c1)cc(CN(Cc1ccc3c(c1)OCO3)C(=O)c1ccccc1)c1nnnn12 | 7.15
3 | CCCCOC(=O)c1ccc(N=Nc2c(C)c(C#N)c(O)[nH]c2=O)cc1 | 6.48
4 | COc1ccc(S(=O)(=O)N2CCCCC2)cc1NC(=O)CCCOc1ccccc1 | 5.13
5 | CCC(=O)c1cn(CC(=O)Nc2cc(C)ccc2C)c2ccccc12 | 11.3
6 | O=C(CN1CCN(S(=O)(=O)c2ccccc2F)CC1)Nc1ccnn1C1CCCC1 | -8.04
7 | COc1ccc(C(=O)CC(c2ccccc2)S(=O)(=O)c2ccc(C)cc2)cc1 (centres unmarked) | 14.7
8 | CCCCNC(=S)NNC(=O)CCn1cc(C)cn1 | 12.9
9 | COc1ccc([C@@H]2[C@@H]3C(=O)N(C(C)(C)C)C(=O)[C@@H]3[C@]3(Cc4ccc(Cl)cc4)C(=O)N(c4cccc(Br)c4)C(=O)N23)cc1 | 10.8
10 | O=C(CSc1nc2ccc([N+](=O)[O-])cc2[nH]1)c1ccc(Cl)cc1 | 12.6
11 | Cn1c(=O)c2ncn(CC(=O)NCCOc3ccccc3)c2n(C)c1=O | 1.94
12 | CN1C(=O)C2(C(C#N)=C(N)N(c3cc(Cl)cc(Cl)c3)C3=C2C(=O)CCC3)c2ccccc21 (centres unmarked) | 8.38
13 | CN(C)c1ccc(NC(=O)Nc2csc3ccccc23)cc1 | 16.7
14 | CCC1(c2ccccc2)NC(=O)N(CC(=O)Nc2cc(Cl)ccc2N2CCOCC2)C1=O (centres unmarked) | 6.48
15 | CC(OC(=O)C1=COCCO1)C(=O)Nc1ccc(Cl)cn1 (centres unmarked) | 9.7
16 | Cc1cc(Cl)ccc1NC(=O)COC(=O)c1c(C)noc1C | 7.79
17 | CCOC(=O)c1cc(-c2csc(-c3cccc(Cl)c3)n2)on1 | 7.53
18 | CCSc1cc(C)nc2c(-c3ccccc3)c(C)nn12 | -0.399
19 | Cc1ccc2ncccc2c1 | 7.95
20 | O=C(CCN1CCc2ccccc2C1)Nc1ccccc1 | 4.41
21 | Cc1nc2ccccn2c1C(=O)CSc1cccc(Cl)c1 | 12.9
22 | O=c1[nH]c(O)c(/C=C2\C=Nc3ccccc32)[nH]1 | 12.5
23 | O=C(COC(=O)C1CCC1)NCc1ccccc1 | 9.65

Row | SMILES | hERG current change (%, negative = inhibition) at 1uM [%]
24 | O=C(N/N=C/c1ccc2c(c1)OCO2)c1cccnc1 | 25.6
25 | Cc1cccc(NC(=O)c2ccc(CN3CCc4ccccc4C3)cc2)c1C | 8.07
26 | Cc1cccc(C(=O)Nc2cc(C)ccc2NC(=O)COc2ccccc2)c1 | 10.2
27 | N#Cc1ccc2ccn(CC(=O)NCc3ccco3)c2c1 | -1.21
28 | Cc1cc(N2CCN(c3ccc(F)cc3)CC2)nc2cc(O)ccc12 | -11.1
29 | COc1ccc(NC(=O)CCN2CCCCCC2)cc1 | 2.23
30 | S=C(NCC1CCCO1)NC1CCCCC1 (centres unmarked) | 13.8
31 | Cn1cc(S(=O)(=O)N2CCOCC2)cc1C(=O)NCCc1ccccc1 | 4.07
32 | O=C(NCCN1C(=O)S/C(=C\c2cccs2)C1=O)[C@H](Cc1ccccc1)N1C(=O)c2ccccc2C1=O | 8.46
33 | CCNC(=S)Nc1ccc(Cl)cc1 | 13.4
34 | Cc1sc2ccc3sccc3c2[n+]1C.[I-] | 12.6
35 | CC(C)c1ccc(OCC(=O)NC(C)c2ccccc2)cc1 (centres unmarked) | 4.8
36 | CC(C)(/C=N/O)/[N+]([O-])=C/c1ccco1 | 9.65
37 | CSc1ccccc1NC(=O)CN1c2ccccc2CC1C (centres unmarked) | 8.76
38 | O=C(O)CNS(=O)(=O)c1ccc2c(c1)Cc1cc(S(=O)(=O)NCC(=O)O)ccc1-2 | 8.35
39 | Cc1ccc(C(=O)Nc2ccccc2C(=O)N2CCCCC2C)cc1 (centres unmarked) | 15.5
40 | O=C(Oc1ccc2ccc(=O)oc2c1)c1ccco1 | -53.7
41 | NNC(=O)c1ccc2nc(-c3ccc(Br)cc3)cn2c1 | -17
42 | O=C(O)CCCN=CC1=C(O)CNC1=O | -8.82
43 | O=C(Nc1nc2ccccc2s1)C1CC(=O)N(c2ccccc2)C1 (centres unmarked) | 6.89
44 | CC1(C)C(=O)NCCN1C(=O)c1ccc2nc(Cc3ccccc3F)oc2c1 | 13.6
45 | CCn1c(SCC(=O)NC2CCCC2)nnc1-c1c[nH]c2ccccc12 | 10.7
46 | Nc1cc(Cl)cc(Cl)c1 | 9.32

Row | SMILES | hERG current change (%, negative = inhibition) at 1uM [%]
47 | O=C1CC(C(=O)Nc2cccc(Cl)c2)n2ncnc2N1 (centres unmarked) | 12
48 | COC(=O)c1ccc(CSc2nc3cc(Cl)ccc3o2)cc1 | 11.9
49 | COc1cc(C(=O)N/N=C/C23CC[C@@H](O)CC2(O)CC[C@@H]2[C@@H]3CCC3(C)C(C4=CC(=O)OC4)CCC23O)ccc1O (some centres unmarked) | 16.3
50 | O=C(NNC(=O)c1ccc2c(=O)n3c(nc2c1)CCC3)c1cccc(Cl)c1 | 6.31
51 | NC(=S)Nc1ccc(S(=O)(=O)c2ccc(NC(N)=S)cc2)cc1 | 15.6
52 | COc1cccc(-n2cnnc2SCC(=O)NC2CC2)c1 | 11
53 | COc1ccc(/C=N\Nc2ncc(F)c(N3CCOCC3)n2)cc1OC | 0.991
54 | O=C(NC1CCCC1)C(c1cccnc1)N(C(=O)c1ccco1)c1ccc(F)cc1 (centres unmarked) | 16.7
55 | COc1cccc(Nc2nc3ccc(OC)cc3s2)c1 | 8.62
56 | COc1ccc(/C=C/C(=O)Nc2ccc(S(=O)(=O)N3CCOCC3)cc2)c(OC)c1 | 15
57 | CN(Cc1ccc(O)cc1)C1CCCCC1 | -12.4
58 | O=S(=O)(c1ccc2c(c1)OCCO2)N1CCN(c2cccc(Cl)c2)CC1 | 9.98
59 | NC(=S)c1ccc(C(N)=S)o1 | 6.81
60 | CC(=O)NC(CC(=O)OC(C)C(=O)Nc1ccc(Cl)cn1)c1ccccc1 (centres unmarked) | 10.4
61 | Cc1ccc(Cl)cc1N1CCN(C(=O)C2CCC(=O)N2C(C)C)CC1 (centres unmarked) | -0.413
62 | CCOC(=O)CSc1nc2ccccc2c(=O)n1C | 14.3
63 | CCOc1ccccc1OC(C)C(=O)Nc1ccc(S(=O)(=O)N2CCCC2)cc1 (centres unmarked) | 9.07
64 | COc1ccc(CNC(=O)C(c2ccncc2)N(C(=O)Cc2cccs2)c2cccc(C)c2)cc1 (centres unmarked) | -2.74
65 | CC(C)CCNC(=O)C(=O)NCc1ccccc1 | 0.144
66 | Cc1cc(C(=O)N2CCN(C(c3ccccc3)c3ccccc3)CC2)on1 | -3.82
67 | CC(C)Cc1nnc(NC(=O)Cc2cccs2)s1 | 12.3
68 | O=c1sc(N2CCN(c3ccc(F)cc3)CC2)nc2ccsc12 | 9.33
69 | Cn1c(CC(=O)Nc2ccccc2Cl)nnc1SCC(=O)NC1=NCCS1 | 16

Row | SMILES | hERG current change (%, negative = inhibition) at 1uM [%]
70 | O=C(CN(Cc1ccccc1)C(=O)CNS(=O)(=O)c1ccc(F)cc1)NCC1CCCO1 (centres unmarked) | 10.9
71 | CCOC(=O)c1c(OCC)[nH]c2ccc(O)cc12 | -1.01
72 | COc1ccc(-c2nsc3c(N4CCN(S(=O)(=O)c5ccccc5F)CC4)ncnc23)cc1 | 3.59
73 | O=C(CSc1nnc(-c2ccc(NS(=O)(=O)c3ccccc3)cc2)o1)NCC1CCCO1 (centres unmarked) | 16.5
74 | CCOC(=O)N1CCN(Cc2nc(-c3cccc(C)c3)no2)CC1 | -9.93
75 | CCOc1cc(C2C(C#N)=C(N)Oc3n[nH]c(C)c32)ccc1OCCN1CCOCC1 (centres unmarked) | 13.9
76 | CC(C)n1c(SCc2ccc(Cl)cc2)nc2c1c(=O)[nH]c(=O)n2C | 13.3
77 | CC(=O)Nc1cccc(N2CCCC2=O)c1 | 4.99
78 | CC(C)[C@H](NC(=O)c1ccco1)C(=O)OCC(=O)NC12CC3CC(CC(C3)C1)C2 | 3.18
79 | COc1cccc(-c2cn3nc4c(nc3n2)CCCC4)c1 | -9.76
80 | CCOC(=O)N1CCC(NC(=O)CC(NS(=O)(=O)c2ccc(Cl)cc2)c2ccco2)CC1 (centres unmarked) | -2.12
81 | O=C(NC1CCCCC1)NC1CC2CCC(C1)N2C(=S)NCc1ccco1 (centres unmarked) | 0.0086
82 | COc1cccc(C(=O)NNC(=O)C2CC(C)=C(C)CC2C(=O)O)c1 (centres unmarked) | 10.1
83 | N#CCCn1ccc(NC(=O)c2ccc(Cl)cc2)n1 | 20.9
84 | COc1ccc2c(c1OC)C(=O)N(c1ncn[nH]1)C2 | 14
85 | O=C(CCC1CCCCC1)NCc1ccccn1 | 4.48
86 | O=C(/C=C/c1ccc(F)cc1)NCCNC(=O)/C=C/c1ccc(F)cc1 | 16.8
87 | CCc1ccc(-c2nc(CS(=O)CC(=O)NCCc3ccccc3)c(C)o2)cc1 (centres unmarked) | 15.9
88 | CC1=C(C(N)=O)C(c2cccs2)NC(=O)N1 (centres unmarked) | 4.07
89 | CCc1nnc(NC(=O)CCC(=O)N2CCN(c3cc(Cl)ccc3C)CC2)s1 | 6.2
90 | CC(=O)Oc1ccc(NC(=O)CSc2ccccc2)cc1 | -1.08
91 | CCN(CC)CCN(C(=O)C1=COCCO1)c1nc2cc3c(cc2s1)OCO3.Cl | -63.3
92 | O=C(CSc1oc(-c2ccco2)nc1S(=O)(=O)c1ccc(F)cc1)NCC1CCCO1 (centres unmarked) | -1.9
